Test results published in article PMC4336329 (PLoS ONE, 2015).
Out of some 310,000 compounds screened, about 14,000 (4.5%) showed an effect of 50% or more. Effects have a minus sign here. The list shows a part of the results.

target: human ether-à-go-go-related gene (hERG) potassium channel (human, UniProt Q12809); experiment: primary screen, population patch clamp on CHO cells stably expressing hERG
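Further: peak tail current of the secondary pulse compared with the same well before compound.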

Chain of human ether-à-go-go-related gene (hERG) potassium channel (Q12809 whole entry, looked up): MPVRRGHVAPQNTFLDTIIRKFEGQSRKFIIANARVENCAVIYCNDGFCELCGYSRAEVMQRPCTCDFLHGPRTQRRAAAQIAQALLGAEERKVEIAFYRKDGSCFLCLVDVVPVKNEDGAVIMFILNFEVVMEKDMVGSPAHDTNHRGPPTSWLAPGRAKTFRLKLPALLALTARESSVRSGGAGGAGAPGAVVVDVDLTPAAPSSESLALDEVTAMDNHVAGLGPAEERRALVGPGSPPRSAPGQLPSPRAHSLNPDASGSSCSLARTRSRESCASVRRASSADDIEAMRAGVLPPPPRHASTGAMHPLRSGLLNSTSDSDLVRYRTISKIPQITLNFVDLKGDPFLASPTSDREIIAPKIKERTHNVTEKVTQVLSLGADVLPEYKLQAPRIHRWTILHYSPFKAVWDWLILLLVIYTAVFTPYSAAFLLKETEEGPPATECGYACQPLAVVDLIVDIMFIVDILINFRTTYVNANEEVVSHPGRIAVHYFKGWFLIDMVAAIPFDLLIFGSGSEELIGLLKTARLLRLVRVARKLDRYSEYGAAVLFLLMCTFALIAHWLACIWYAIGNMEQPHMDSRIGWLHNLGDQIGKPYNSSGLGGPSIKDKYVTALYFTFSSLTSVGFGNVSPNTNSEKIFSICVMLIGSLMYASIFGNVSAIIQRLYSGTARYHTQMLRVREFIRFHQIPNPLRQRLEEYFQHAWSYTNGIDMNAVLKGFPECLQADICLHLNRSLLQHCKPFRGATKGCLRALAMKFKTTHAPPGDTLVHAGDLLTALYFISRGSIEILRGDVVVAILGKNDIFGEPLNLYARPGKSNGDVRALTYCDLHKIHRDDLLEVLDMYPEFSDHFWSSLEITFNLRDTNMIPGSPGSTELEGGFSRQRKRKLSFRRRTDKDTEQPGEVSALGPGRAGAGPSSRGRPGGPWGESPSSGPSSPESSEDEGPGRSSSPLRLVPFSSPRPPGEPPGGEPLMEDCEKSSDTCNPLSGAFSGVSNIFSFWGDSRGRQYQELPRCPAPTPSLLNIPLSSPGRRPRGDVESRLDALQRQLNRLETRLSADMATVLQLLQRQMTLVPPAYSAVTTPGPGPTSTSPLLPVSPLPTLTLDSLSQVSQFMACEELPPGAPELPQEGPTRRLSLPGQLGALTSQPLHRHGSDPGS

SMILES | hERG current change (%, negative = inhibition) at 10uM [%]
Cc1cc(NC(=O)CCC(=O)N(CCC(C)C)C(C(=O)NC2CCCC2)c2cccnc2)no1 (stereo not drawn) | 1.53
O=C(NCc1ccccc1)N1CCn2c(nc3ccccc32)C1 | 2.53
CCC(CC)C(=O)Nc1cc(OC)c(OC)cc1C(=O)O | 2.98
CC(C(=O)N1CCN(Cc2ccccc2)CC1)n1ncn2cccc2c1=O (stereo not drawn) | -4.84
CSc1ccccc1NC(=O)Nc1ccccc1 | 16.9
CN1C(=O)C(=Cc2ccccc2OCCOc2ccc([N+](=O)[O-])cc2)C(=O)N(C)C1=O | -44.7
COc1ccc(-n2c(=S)[nH]c3ccccc32)cc1 | 1.28
CCOc1ccc2c(c1)OC(c1ccc(OC)cc1)(C(F)(F)F)NC2=O (stereo not drawn) | -4.4
CC[N+]1(CC)CC2=Cc3ccccc3CC2C1.[Br-] (stereo not drawn) | -0.332
Cc1ccc(NC(=O)CS(=O)CC(=O)N(C(C)C(=O)NC2CCCCC2)C(C)(C)C)cc1 (stereo not drawn) | -5.73
C=CCOC(=O)C1=C[C@H](c2csc3ccccc23)C[C@H](OCCCCO)O1 | -21.9
O=C1CC(N2CCN(Cc3ccc4c(c3)OCO4)CC2)C(=O)N1c1ccccc1 (stereo not drawn) | -5.99
COc1ccc(S(=O)(=O)NCC(=O)NC2CC2)cc1OC | 15.2
CCSc1nnc(NC(=O)Cc2ccc(OC)cc2)s1 | 2.81
O=C(CCNC(=O)c1ccco1)Nc1cccc(C(F)(F)F)c1 | -3.82
CCOC(=O)C1CCCN(C(=O)c2ccccc2NC(C)=O)C1 (stereo not drawn) | 14.6
O=C(CSc1nnc(CNC(=O)c2ccccc2)o1)c1ccccc1 | 2.11
CN1C(=O)CC(N2CCC(c3nc4ccccc4[nH]3)CC2)C1=O (stereo not drawn) | 0.784
Cn1cc(Cl)c(C(=O)NC(=S)Nc2sc3c(c2C#N)CCCCC3)n1 | 9.46

SMILES | hERG current change (%, negative = inhibition) at 10uM [%]
CCOC(=O)C1CCCN(C(=O)c2cc(COc3ccc(C)nc3)on2)C1 (stereo not drawn) | -7.13
Cn1c(N)c(C(=O)COC(=O)COc2ccc(C#N)cc2)c(=O)n(C)c1=O | -24
Nc1c(C(=O)N2CCCCCC2)oc2ccccc12 | -10.5
O=C(O)c1ccc2c(c1)C(=O)N(CCc1c[nH]c3ccccc13)C2=O | 15
N#Cc1cnn(-c2cccc(Cl)c2)c1N | 11.6
CCCC(C(=O)NCc1ccco1)N(Cc1ccco1)C(=O)CNS(=O)(=O)c1ccccc1 (stereo not drawn) | 1.15
CCC(C)(C)NC(=O)CN(Cc1ccc2c(c1)OCO2)C(=O)CCC(=O)Nc1cc(C)ccn1 | -29.4
O=S(=O)(Cc1ccccc1)N1CCC(N2CCN(c3ccccc3)CC2)CC1 | -22.7
CC[C@H](C)C(C(=O)N1CCN(C(=O)OC(C)(C)C)CC1)n1cc(C(CO)NC(=O)OC(C)(C)C)nn1 (stereo partly drawn) | 7.88
CC1(C)COCN1C(=O)c1ccc(Cl)c(Cl)c1 | 13.6
CCc1ccc(C(=O)NNc2ccccc2F)cc1 | -7.54
CCCOC(=O)CN1C(=O)c2ccc(C(=O)OCCC)cc2C1=O | -16.2
OCCc1c[nH]c2cc(F)ccc12 | 7.46
O=C(O)/C(=C\c1cccs1)c1ccc(F)cc1 | 6.19
c1coc(-c2nc3c4c5c(sc4ncn3n2)CCCC5)c1 | 10.6
CCOc1ccc(NC(=O)C2C3C=CC4(CN(C(C(=O)OC)C(C)C)C(=O)C24)O3)cc1 (stereo not drawn) | 9.85
O=C(COc1ccc(Cl)cc1)NCCS(=O)(=O)N1CCN(c2ccc(F)cc2)CC1 | -29
CC(=O)c1c(C)[nH]c(C(=O)Nc2ccc(Cl)cc2)c1C | -9.14
COC(=O)C(NC(=O)c1ccc(F)cc1)(Nc1ncc(S(=O)(=O)c2ccc([N+](=O)[O-])cc2)s1)C(F)(F)F (stereo not drawn) | -52.9

SMILES | hERG current change (%, negative = inhibition) at 10uM [%]
Nc1nc(N2CCCCC2)c(C=O)c(N2CCCCC2)n1 | -8.28
C(=C\c1ccccc1)/CN1CCN(Cc2nc(Cc3ccccc3)no2)CC1 | -65.1
CCC(C)(C)n1nnnc1C(c1cc2ccc(OC)cc2[nH]c1=O)N1CCN(C2CCCCC2)CC1 (stereo not drawn) | -59.6
CCc1ccc(NC(=O)NCC2CCN(c3ccc(OC)cc3)C2)cc1 (stereo not drawn) | -6.79
COc1ccccc1CNC(=O)Cn1c(=O)oc2cc(Cl)ccc21 | 0.41
CCN(CC)c1ccc(NC(=O)c2ccco2)cc1 | -20.5
CC(=O)Nc1cccc(NC(=O)COc2ccccc2C)c1 | 5.95
CC(=O)Nc1c(I)c(C(=O)N[C@H]2C(O)O[C@H](CO)[C@@H](O)[C@@H]2O)c(I)c(N(C)C(C)=O)c1I (stereo partly drawn) | 1.81
CN(c1ccccc1C(=O)N1CCCC1)S(C)(=O)=O | -9.73
Cc1ccc(NC(=O)NCc2cccnc2)cc1C | 7.98
NNC(=O)c1ccc(CSc2n[nH]c(=O)[nH]c2=O)cc1 | 5.23
O=C(CSc1ncn[nH]1)Nc1cccc(S(=O)(=O)N2CCCCCC2)c1 | -77.1
Cc1ccc(/C=C/C2=NN(Cc3ccc(Cl)c(Cl)c3)C(=O)CC2)cc1 | -1.61
COc1ccc(N=CC=C2OC(C)(C)C(C)(C)O2)cc1OC.Cl | -3.51
COc1ccc(OC)c(NC(=O)c2cc3c(=O)n4ccccc4nc3n2C)c1 | -0.57
O=[N+]([O-])c1ccc(NC2CCCC2)cc1 | -10.7
CCCCn1c(SCC(=O)NCc2ccco2)nc2cc(S(N)(=O)=O)ccc21 | -7.32
COc1ccc(C(=O)NCc2nnc(SCC(=O)N3CCc4ccccc43)n2C2CCCCC2)cc1 | 9.92
CCCOc1ccc(CCCN=C(N)N)cc1Cl.O=S(=O)(O)O | 1.02
